PubChem BioAssay AID1476 (National Center for Advancing Translational Sciences (NCATS), 2009)
Screen size: about 200,000 compounds; about 4,500 (2.2%) were called active. Inconclusive results, whose numbers are uncertain, are shown with a selection of clear calls. Calls follow the shape of the dose curve; as a rule, active = well fitted inhibition curve with a large enough effect; inconclusive = small, poorly fitted or top-dose-only effect, or effect the other way; inactive = flat fitted curve, though single readings scatter. Potencies beside an inconclusive call are fits to weak or partial responses and may not hold up.

Each compound was assayed against Cruzipain (Trypanosoma cruzi) (UniProt P25779) (assay: qHTS Assay for Promiscuous and Specific Inhibitors of Cruzain (without detergent)). Conditions: purified cruzain, Z-FR-AMC fluorescence, no detergent.
Method in brief: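 Purified cruzain at 1.5 nM, pre-incubated 15 min with compound at room temperature in 100 mM sodium acetate pH 5.5, 5 mM DTT, 0.00005% Triton X-100. Reaction started with 2 uM Z-FR-AMC; AMC fluorescence increase over 60 s gives rate.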
Also: nearly all actives have a fitted effect of over 40% in size.
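For max response, negative = inhibition in this document: plate controls were enzyme without inhibitor for no effect and buffer without enzyme for full effect.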
Potency is read from the fitted curve at half-maximal effect; tags tell the direction and shape of the fitted curve.

Chain of UniProt P25779 (P25779 whole entry, looked up): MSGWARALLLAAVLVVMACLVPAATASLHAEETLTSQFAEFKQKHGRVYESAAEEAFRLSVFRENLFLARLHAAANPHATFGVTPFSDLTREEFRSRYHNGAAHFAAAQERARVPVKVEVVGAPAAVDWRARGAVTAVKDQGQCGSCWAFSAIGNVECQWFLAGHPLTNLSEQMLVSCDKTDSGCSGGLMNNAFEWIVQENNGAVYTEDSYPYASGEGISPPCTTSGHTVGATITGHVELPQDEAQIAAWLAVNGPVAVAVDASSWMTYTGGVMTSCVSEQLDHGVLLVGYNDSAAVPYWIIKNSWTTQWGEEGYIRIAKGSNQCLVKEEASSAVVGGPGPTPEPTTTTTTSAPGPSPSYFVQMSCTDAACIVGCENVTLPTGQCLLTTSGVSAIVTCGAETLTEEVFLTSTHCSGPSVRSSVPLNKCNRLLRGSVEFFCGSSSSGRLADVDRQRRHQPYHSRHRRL

SMILES	Potency	max response, negative = inhibition
CCC(=O)Nc1ccc(Cl)c(NC(=S)NC(=O)COc2ccc(Cl)cc2)c1	inconclusive: 31.6 µM [inhibitor, single point]	
COc1ccc(OC)c(NC(=O)CCc2c(C)nc3c(c(C)nn3C(C)(C)C)c2C)c1	inconclusive: 39.8 µM [activator, single point]	
COc1cc(/C=N/NC(=O)Cc2ccccc2)ccc1Oc1ccc([N+](=O)[O-])cc1[N+](=O)[O-]	inconclusive: 20 µM [inhibitor, single point]	
CCCCOc1ccc(CNC(=O)c2cnc3sc(N4CCC(C)CC4)nn3c2=O)cc1	inconclusive: 6.31 µM [activator, single point]	
COc1ccc(-c2oc3ncnc(NCCN4CCOCC4)c3c2-c2ccc(OC)cc2)cc1	inconclusive: 31.6 µM [activator, single point]	
COc1ccc(/C=N/N2CCN(C3c4ccccc4-c4ccccc43)CC2)cc1OC	inconclusive: 39.8 µM [activator, single point]	
Cn1c(Cc2ccccc2)nnc1SCCC(=O)Nc1ccccc1	inconclusive: 6.31 µM [inhibitor, single point]	
Cc1ccc(S(=O)(=O)N/N=C/c2ccc(OS(=O)(=O)c3ccc(C)c([N+](=O)[O-])c3)cc2)cc1	inconclusive: 39.8 µM [inhibitor, single point]	
CCOC(=O)c1ccc(N2C(=O)C3C(/C=C/c4ccccc4)OC4(C(=O)c5ccccc5C4=O)C3C2=O)cc1 (centres undefined)	inconclusive: 31.6 µM [inhibitor, single point]	
Cc1ccc(C)c(N2CCN(C(=O)Cn3c(C)c4cnn(-c5ccccc5)c(=O)c4c3C)CC2)c1		inactive: 4.68%
CCN(C(=O)Cn1cc(C(=O)c2ccc(F)cc2)c(=O)c2ccc(C)nc21)c1cccc(C)c1		inactive: 9.56%
O=C(O)CCN1C(=O)CC(N2C(=O)/C(=C/c3ccc(Cl)cc3)SC2=S)C1=O (centres undefined)	inconclusive: 10 µM [inhibitor, single point]	
CC(C)CC(C)NNC(=O)c1cc2ccccc2[nH]1 (centres undefined)	inconclusive: 31.6 µM [inhibitor, single point]	
COc1c(OC(C)=O)ccc(/C=C/c2ccc3cccc(OC)c3n2)c1[N+](=O)[O-]	inconclusive: 10 µM [activator, partial curve]	
COCCNC(=O)CCSc1nc(-c2ccc3c(c2)OCO3)cc(C(F)(F)F)n1	inconclusive: 39.8 µM [activator, single point]	
CC(=O)Nc1sc(C)c(C)c1C(=O)OCC(=O)Nc1cc(S(=O)(=O)N2CCCCC2)ccc1Cl	active: 25.1 µM	
Cc1onc(-c2ccccc2)c1C(=O)Nc1nc(-c2ccc(F)c(F)c2)cs1	inconclusive: 39.8 µM [inhibitor, single point]	
COCCOC(=O)C1=C(C)N=C2SCCC(=O)N2C1c1ccc(OCc2ccccc2)c(OC)c1 (centres undefined)	inconclusive: 39.8 µM [activator, single point]	
COc1ccc(S(=O)(=O)n2nc(-c3ccco3)nc2NCc2ccc(OC)c(OC)c2)cc1	inconclusive: 31.6 µM [activator, single point]	
Cc1c(C(=O)NCC2CCCO2)oc2ccc(S(=O)(=O)N3CC(C)CC(C)C3)cc12 (centres undefined)	inconclusive: 39.8 µM [activator, single point]	

SMILES	Potency	max response, negative = inhibition
Cc1cc(=O)n2[nH]c(=O)c(N=Nc3ccccc3)c2[nH]1	inconclusive: 31.6 µM [inhibitor, single point]	
COc1cc(C2c3c(-c4c(C)cc(C)cc4O)n[nH]c3C(=O)N2CCCOC(C)C)cc(OC)c1OC (centres undefined)		inactive: 22.2%
CCNc1ncc2nc(CCc3ccccc3)c(=O)n(CCOC)c2n1		inactive: 8.04%
Cc1cccc(N2CCN(C(=O)CCC(=O)NNc3nc4ccccc4c4nc(C)nn34)CC2C)c1 (centres undefined)	inconclusive: 39.8 µM [activator, single point]	
Cc1nc2cc(-c3cccc(F)c3)nn2c(C)c1CCC(=O)NC(C)c1ccc2c(c1)OCCO2 (centres undefined)	inconclusive: 39.8 µM [activator, single point]	
[N-]=[N+]=Nc1ccc(C(=O)CSC[C@H](NC(=O)CC[C@H](N)C(=O)O)C(=O)NCC(=O)O)cc1	inconclusive: 6.31 µM [inhibitor, single point]	
O=C(CCC1CCCC1)Nc1nnc(-c2ccc3c(c2)OCO3)s1	active: 10 µM	
CCOC(=O)C(=O)c1cn(C2OCC(OC(C)=O)C(OC(C)=O)C2OC(C)=O)c2ccccc12 (centres undefined)	inconclusive: 39.8 µM [activator, single point]	
O=S(=O)(c1ccccc1)N1CCC[C@@]2(CCN(c3cccc(-c4ccccc4)c3)C2)C1	active: 3.98 µM	
COc1ccc(Cl)cc1NC(=O)Cn1c(=O)n(CCCC(=O)NCCc2ccc(OC)c(OC)c2)c(=O)c2ccccc21	inconclusive: 15.8 µM [activator, partial curve]	
CCOc1cc(N2CCOCC2)c(OCC)cc1NC(=O)C(NC(=O)c1ccco1)C(C)C (centres undefined)	inconclusive: 31.6 µM [activator, single point]	
CCCOc1ccc(CNC(=O)Cn2cc3c(n2)-c2c(oc(C(=O)N4CCOCC4)c2C)CC3)cc1	inconclusive: 39.8 µM [activator, single point]	
COc1cc(OC)cc(C(=O)N(Cc2nc(-c3cccc(C)c3)no2)C(C)C)c1	inconclusive: 25.1 µM [activator, single point]	
CCOc1ccc(CNC(=O)c2cc3c(s2)-c2ccccc2OC3)cc1		inactive: -8.41%
COc1ccc(S(=O)(=O)N2CCN(C(=O)c3c(-c4ccccc4)noc3C)CC2)cc1	inconclusive: 39.8 µM [activator, single point]	
Cc1[nH]n(-c2ccccc2)c(=O)c1C1(C(F)(F)F)C(=O)N(c2ccccc2)C2=C1C(=O)CC(C)(C)C2 (centres undefined)	inconclusive: 39.8 µM [activator, single point]	
COc1ccc(N=C2S/C(=C\c3cc(C)n(C)c3C)C(=O)N2C)cc1	inconclusive: 31.6 µM [activator, single point]	
Cc1ccc(S(=O)(=O)c2nc(-c3ccc(F)cc3)oc2SCC(=O)c2ccccc2)cc1	inconclusive: 31.6 µM [inhibitor, single point]	
CCOc1ccccc1NC(=O)C(=O)c1cc(C)n(-c2ccc(F)cc2)c1C		inactive: 16.1%
CCC(C)COC(=O)C(C#N)c1nc2ccccc2nc1N1CCCCC1 (centres undefined)	inconclusive: 39.8 µM [inhibitor, single point]	

SMILES	Potency	max response, negative = inhibition
CCC(CC)C(=O)N1CCc2cc(OC)c(OC)cc2C1COc1ccc(C(=O)OC)cc1 (centres undefined)	inconclusive: 39.8 µM [activator, single point]	
Cn1c(SCC(=O)c2ccc3c(c2)OCO3)nnc1C1COc2ccccc2O1 (centres undefined)	inconclusive: 39.8 µM [inhibitor, single point]	
Cc1ccc2c(COC(=O)c3n[nH]c4ccccc34)cc(=O)oc2c1	inconclusive: 39.8 µM [inhibitor, single point]	
COc1ccc(/C=N/NC(=O)c2[nH]c3ccc(Br)cc3c2-c2ccccc2)cc1	inconclusive: 39.8 µM [inhibitor, single point]	
O=C(CSC1=N/C(=C/c2ccc(Cl)c(Cl)c2)C(=O)N1c1ccccc1F)NC1CC1	inconclusive: 39.8 µM [inhibitor, single point]	
COc1ccc(CC(=O)Nc2cc(-c3nc4cccnc4s3)ccc2C)cc1	inconclusive: 39.8 µM [inhibitor, single point]	
CCOC(=O)c1ccc(N2C(=O)c3n[nH]c(-c4cccs4)c3C2c2cccc(OC)c2)cc1 (centres undefined)	inconclusive: 39.8 µM [inhibitor, single point]	
CN(C)S(=O)(=O)N(CC(=O)NCCSCc1cccc(Cl)c1)c1ccccc1		inactive: 10.7%
Nc1cc(N)nc(SCc2cc(=O)oc3cc4c(cc23)CCC4)n1	inconclusive: 39.8 µM [inhibitor, single point]	
COc1cc(CN(C(=O)COc2ccccc2Cl)c2ccccn2)cc(OC)c1OC	inconclusive: 25.1 µM [activator, single point]	
CCOC(=O)Cc1csc(NC(=O)CSc2nnc(-n3nc(C)cc3C)c3ccccc23)n1	inconclusive: 39.8 µM [activator, single point]	
O=C(c1ccc(C(F)(F)F)cc1)N1CCC(=O)N([C@H](COCc2ccc(C(F)(F)F)cc2)Cc2ccccc2)CC1	inconclusive: 11.2 µM [activator, partial curve]	
COc1cccc(N2C(=O)CSC23C(=O)N(CC(=O)Nc2cccc(Cl)c2)c2ccccc23)c1 (centres undefined)	inconclusive: 39.8 µM [inhibitor, single point]	
CC1(C)C=C2[C@H]3CC[C@@H]4[C@@]5(C)CCC(=O)C(C)(C)[C@@H]5CC[C@@]4(C)[C@]3(C)CC[C@@]2(C(=O)O)CC1	inconclusive: 39.8 µM [inhibitor, single point]	
COc1ccc(-c2nnc3n2N=C(c2ccccc2)CS3)cc1OC		inactive: 26.4%
CCOC(=O)c1c(C)nc(C)c(C(=O)OCC)c1-c1ccc(Br)cc1	inconclusive: 39.8 µM [activator, single point]	
Cn1nc(-c2ccc(OCC(=O)Nc3ccc(Cl)cc3)cc2)c2ccccc2c1=O		inactive: -11.7%
CSc1ccc(CCNC(=O)Cn2ncn3c(cc4ccccc43)c2=O)cc1		inactive: 9.76%
CCC(C(=O)Nc1ccccc1)n1nc(-c2cc(C)ccc2C)ccc1=O (centres undefined)		inactive: 2.96%
